Laboratory results published in paper PMC6919601, “Identification of Plasmodium dipeptidyl aminopeptidase allosteric inhibitors by high throughput screening” (PLoS ONE, 2019).
Where “and” joins values, the source holds several entries; their conditions need not be identical. Identical values can stand only once. About 230 (0.21%) of roughly 110,000 compounds showed an effect of 50% or more. This is one part of the list.

Molecular target: DPAP1 (Plasmodium falciparum, UniProt Q8IIJ9)
Assay: primary screen, percent inhibition; read by cleavage of a fluorogenic dipeptide substrate; higher = more effect of the substance
Set-up: species or system P. falciparum D10 trophozoite lysates; single well
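Also: 30 min substrate incubation versus DMSO and 10 µM JCP410 controls.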

Sequence of DPAP1 (Q8IIJ9 whole entry, looked up): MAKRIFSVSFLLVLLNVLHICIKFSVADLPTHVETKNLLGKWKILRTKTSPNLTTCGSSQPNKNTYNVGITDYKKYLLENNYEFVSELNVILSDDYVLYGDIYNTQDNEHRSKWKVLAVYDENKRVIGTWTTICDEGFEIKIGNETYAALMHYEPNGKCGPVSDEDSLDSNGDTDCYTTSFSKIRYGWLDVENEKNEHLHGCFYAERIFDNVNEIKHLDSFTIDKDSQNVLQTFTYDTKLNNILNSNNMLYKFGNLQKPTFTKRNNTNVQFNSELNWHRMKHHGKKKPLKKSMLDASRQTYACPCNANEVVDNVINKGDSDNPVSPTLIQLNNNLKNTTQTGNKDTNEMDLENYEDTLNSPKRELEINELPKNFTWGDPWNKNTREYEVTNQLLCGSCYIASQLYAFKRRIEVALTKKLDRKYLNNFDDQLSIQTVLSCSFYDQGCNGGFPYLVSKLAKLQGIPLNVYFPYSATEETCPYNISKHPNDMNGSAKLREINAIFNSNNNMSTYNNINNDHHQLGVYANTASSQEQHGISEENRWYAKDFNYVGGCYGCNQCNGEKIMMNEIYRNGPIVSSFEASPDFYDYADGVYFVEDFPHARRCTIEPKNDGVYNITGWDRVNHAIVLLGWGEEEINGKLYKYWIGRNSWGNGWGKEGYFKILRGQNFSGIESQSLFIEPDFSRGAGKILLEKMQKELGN

Row | Structure (SMILES) | % Inhibition @ 10 uM
1 | COc1ccc(-c2noc(CSc3nnc(-c4ccccc4)n3C)n2)cc1OC | -2.21%
2 | COc1ccccc1S(=O)(=O)Cc1ccc(C(=O)NCc2ccc3c(c2)OCO3)o1 | 0.458%
3 | Cc1ccc(OCC(=O)Nc2cc(Cl)c(O)c(Cl)c2)cc1 | -7.83%
4 | O=[N+]([O-])c1cnc(-c2ccc(Br)cc2)nc1 | -4.15%
5 | CCCC(C)C(=O)Nc1ccc(OC)cc1 (stereo not shown) | 2.44%
6 | Cc1cccc(C(=O)NC(=O)Nc2nc(C)cc(C(F)(F)F)n2)c1 | 0.9%
7 | C=CCNC(=S)Nc1sc2c(c1C(=O)OCC)CCC(C)C2 (stereo not shown) | 0.484%
8 | COc1cc(CNC(C)c2ccccc2)cc(Br)c1OCC(N)=O (stereo not shown) | -5.54%
9 | O=c1c2ccccc2ncn1Cc1ccco1 | -0.116%
10 | O=C(Cn1cnc(S(=O)(=O)N2CCCC2)c1)NC1CCCCC1 | 2.14%
11 | COC(=O)c1ccc(OCC2c3cc(OC)c(OC)cc3CCN2C(=O)COc2ccccc2)cc1 (stereo not shown) | -1.97%
12 | O=C(CN(c1ccc2c(c1)OCCO2)S(=O)(=O)c1ccccc1)NC1CC2CCC1C2 (stereo not shown) | -2.29%
13 | Cc1ccc(-c2nn(CCC(=O)NCCN3CCOCC3)c(=O)c3ccccc23)cc1 | -1.17%
14 | COc1ccc(S(=O)(=O)Nc2cc3c(cc2C(C)=O)OCO3)cc1 | 2.64%
15 | COc1cccc(C2=NOC(C(=O)N3CCOCC3)C2)c1OC (stereo not shown) | 1.24%
16 | Clc1ccc(N2CCN(Cc3cccc(Cl)c3Cl)CC2)cc1 | 3.16%
17 | Cc1c(Cc2ccccc2)sc(NC(=O)COc2ccccc2)c1C(N)=O | -1.28%
18 | CCOC(=O)C1CC(=O)Nc2cc(OC)c(OC)cc21 (stereo not shown) | 3.18%
19 | Cc1cccc(CNCc2c(C(=O)O)n(Cc3cccc(F)c3)c3cc(C)ccc23)c1 | -2.37%
20 | CCN(CC)C1CC(=O)N(c2ccc(C(C)C)cc2)C1=O (stereo not shown) | 2.98%
21 | Nc1c(C(=O)NCc2ccc3c(c2)OCO3)nnn1Cc1cccc(C(F)(F)F)c1 | -2.25%
22 | Cc1ccccc1CNC(=O)CN1C(=O)c2cccc3cccc1c23 | 2.78%

Row | Structure (SMILES) | % Inhibition @ 10 uM
23 | Cc1ccccc1N1Cc2ccccc2C1 | -2.24%
24 | CS(=O)(=O)NCCNC(=O)c1c(O)oc2ccccc2c1=O | 3.34%
25 | CCCC(=O)Nc1c(C(=O)c2ccc(C)cc2)oc2ccccc12 | 3.93%
26 | O=C1NC2C(NC(=O)N2c2ccccc2)N1c1ccccc1 (stereo not shown) | -3.74%
27 | Cc1ccc(NC(=O)c2sc3nc(C)cc(C)c3c2N)c(Br)c1 | 3.81%
28 | Cc1ccccc1OCCCCc1c(C)n[nH]c1C | -4.3%
29 | CC1CCCC(N2CCN(C=O)CC2)C1 (stereo not shown) | 3.19%
30 | Cc1ccc(C(=O)N/C(=C/c2ccco2)C(=O)Nc2ccccc2C)cc1 | -2.8%
31 | CC[C@H](C)C(NC(=O)C1CCN(C(=O)OC(C)(C)C)CC1)C(=O)NC(CCc1ccccc1)C(=O)CO (stereo partly shown) | -3.97% and -5.64%
32 | OC1=C2C(=Nc3nc(-c4cccnc4)nn3C2c2ccc(Cl)cc2)CCC1 (stereo not shown) | 3.59%
33 | CC1=NN(c2ccccc2)C(=O)C(c2ccccc2)(c2ccccc2)O1 | -7.76%
34 | COc1ccccc1CNC(=O)CCN1N=C(c2ccccc2)CCC1=O | -2.94%
35 | COc1ccc(NC(=O)C(CC2CCCCC2)C(=O)NCC#N)cn1 (stereo not shown) | -0.214%
36 | COc1ccccc1C(=O)Nc1cc(-c2nc3ncccc3o2)ccc1C | -0.67%
37 | Cc1ccc(NC(=O)/C=C/c2ccc3c(c2)OCO3)c(Br)c1 | -3.94%
38 | CC1CCN(S(=O)(=O)c2ccc(NC(=O)C(C)Oc3ccc(F)cc3)cc2)CC1 (stereo not shown) | -5.31%
39 | CC(NC(=O)c1ccc(S(=O)(=O)N2CCOCC2)cc1)C12CC3CC(CC(C3)C1)C2 (stereo not shown) | -1.84%
40 | COc1ccccc1-c1c(C)nn2c(SCC(=O)N3CCN(c4ccccn4)CC3)cc(C)nc12 | -1.7%
41 | CC(C)c1ccc(NC(=O)COc2ccc(Br)cc2)cc1 | -5.11%
42 | COc1ccc(NC(=O)CN2C(=O)S/C(=C/c3cccn3-c3ccc(C(=O)O)cc3)C2=O)cc1 | 9.95%
43 | CC12CN3CC(C)(CN(C1)C3c1cc(Br)ccc1O)C2O (stereo not shown) | -7.62%
44 | O=c1c(CN2CCCCCC2)coc2ccccc12 | -0.261%

Row | Structure (SMILES) | % Inhibition @ 10 uM
45 | O=C(NCC1CCCO1)c1cc2nc(-c3ccc(Cl)c(Cl)c3)cc(C(F)(F)F)n2n1 (stereo not shown) | 3.47%
46 | Cc1ccc(NC(=O)C2CC=CCC2C(=O)O)cc1Cl (stereo not shown) | 1.96%
47 | Cc1ccc(CCNC(=O)C2CCN(c3nnc(C)c4c(C)n(-c5ccc(C)cc5)nc34)CC2)cc1 | 3.56%
48 | C=CCOC(=O)C1=C(C)N=C2CCCC(O)=C2C1c1cccc(Br)c1 (stereo not shown) | -8.04%
49 | COCCCN(C)C1CCN(C(=O)Cn2c(-c3ccccc3)cc(C(C)=O)c2C)CC1 | -7.26%
50 | CC(C)C(=O)Nc1nc(-c2cccc3ccccc23)cs1 | 1.57%
51 | O=C(CSCc1ccccc1)N1CCN(Cc2ccc3c(c2)OCO3)CC1 | 3.87%
52 | CN(Cc1ccccc1)C(=O)Cc1noc2ccccc12 | 9.85%
53 | C[Si](C)(C)CCCN1C=CC(=C2C(=O)c3ccccc3C2=O)C=C1 | 3.54%
54 | COc1ccc(C2=NNC(=O)c3ccccc3C2)cc1 | -7.35%
55 | CSc1nnc(NC(=O)c2nc(S(=O)(=O)Cc3ccc(C)cc3)ncc2Cl)s1 | -0.946%
56 | Cc1cccc(CN2CCN(CC(=O)NCc3ccc4c(c3)OCO4)C2=O)c1 | -8.49%
57 | CC(C)(CO)NC(=O)COc1ccc(Cl)cc1Cl | -3.04%
58 | CCC(=O)Nc1ccccc1C(=O)c1ccccc1 | -6.64%
59 | O=C(N[C@@H](Cc1ccc2ccccc2c1)C(=O)N[C@@H](CCc1ccccc1)CNS(=O)(=O)c1ccc2oc3ccccc3c2c1)OCc1ccccc1 | 0.744%
60 | O=C(O)CCC(=O)Nc1ccc(F)cc1 | -8.76%
61 | O=C(NCc1noc2ccccc12)Nc1nccs1 | 2.49%
62 | CCOC(=O)c1c(NC(=O)c2nc(SC)ncc2Cl)sc(C(C)=O)c1C | 2.19%
63 | CCNC(=O)CCC1COc2ccccc2O1 (stereo not shown) | 1.67%
64 | CCc1nn(C(C)C(=O)NCCCN2CCOCC2)c(=O)c2cc3occc3n12 (stereo not shown) | -0.281%
